Experimental data taken from PubChem BioAssay AID485344 (National Center for Advancing Translational Sciences (NCATS), 2010).
About 6,900 (2%) of roughly 340,000 compounds were called active. Rule as the data show it: active = inhibition above about 30%; inactive = below that, where a call was filed. The entries are a selection whose mix differs from that of the whole data set. Where no call is shown, the source filed none.
Also: 0% is about no effect.

These compounds were tested against D(2) dopamine receptor (Homo sapiens) (UniProt P14416) (assay: HTS Assay for Allosteric Antagonists of the Human D2 Dopamine Receptor: Primary Screen for Antagonists). Conditions: HEK293 TREx D2 cells, calcium flux, dopamine EC80; at 10 µM; stronger effect = higher value.
UniProt P14416, sequence (P14416 whole entry, looked up): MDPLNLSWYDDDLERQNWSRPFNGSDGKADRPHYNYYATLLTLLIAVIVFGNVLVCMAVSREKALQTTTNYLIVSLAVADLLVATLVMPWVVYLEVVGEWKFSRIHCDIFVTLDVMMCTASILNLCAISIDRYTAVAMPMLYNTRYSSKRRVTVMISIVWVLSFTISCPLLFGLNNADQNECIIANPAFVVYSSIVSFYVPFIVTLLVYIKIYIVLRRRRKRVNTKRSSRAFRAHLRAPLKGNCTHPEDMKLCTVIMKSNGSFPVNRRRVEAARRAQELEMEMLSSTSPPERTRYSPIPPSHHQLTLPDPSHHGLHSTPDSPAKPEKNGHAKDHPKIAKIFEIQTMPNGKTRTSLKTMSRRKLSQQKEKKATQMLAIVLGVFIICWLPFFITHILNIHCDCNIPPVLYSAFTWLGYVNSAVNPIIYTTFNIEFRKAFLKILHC
How it was run: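 In this primary screen, negative modulation is detected by tracking calcium flux after an EC80 dopamine challenge in inducible HEK293 T-REx D2 cells preexposed to test compound for 180 s.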
`COc1ccccc1C(=O)NCC(=O)N1CC=C(c2ccccc2)CC1` was tested, and the inhibition was active: 30.2%.
Work on `Cc1nc(N2CCOCC2)c2c(C(=O)NCc3cccc(Cl)c3)c(C)oc2n1` yielded an inhibition of 19.5%.
`O=C(CCCCCn1c(=O)c2sccc2n(CC(=O)Nc2cccc(Cl)c2)c1=O)NCc1ccc2c(c1)OCO2` showed an inhibition of 8.77%.
Work on `CCOC(=O)Cc1ccc(NC(=O)Nc2cccc(OCc3cc(=O)n4cc(C)ccc4n3)c2)cc1` yielded an inhibition of 11.7%.
`COc1ccc(-c2nc3c(c(SCC(=O)Nc4ccc(C(=O)O)cc4)n2)Cc2ccccc2O3)cc1` gave an inhibition of -15.7%.
With `CCc1cccc(NC(=O)CSc2ncc3c(n2)-c2ccc(Cl)cc2N(Cc2ccccc2)S3(=O)=O)c1` the inhibition was 14.5%.
With `CCc1c(C)sc2c1CCN(C(=O)Nc1cc(OC)c(OC)c(OC)c1)C2c1ccccc1` (stereo not drawn) the inhibition was 17.5%.
`O=C(NCCN1CCN(c2ccccc2)CC1)C1CCCN(S(=O)(=O)c2cnc[nH]2)C1` (stereo not drawn) was tested, and the inhibition was active: 75.7%.
`COc1cccc(C(=O)NC2(C(F)(F)F)C(=O)Nc3c2c(=O)[nH]c(=O)n3-c2ccc(C)cc2)c1` (stereo not drawn) showed an inhibition of 1.37%.
For `COc1ccc(NC(=O)c2cn(CC(C)C)c(=O)c3cc(OC)c(OC)cc23)cc1Cl`, the inhibition was -0.339%.
In the case of `COc1ccccc1NS(=O)(=O)c1cccc2cccnc12`, the inhibition is reported as active: 31.1%.
`Cc1ccc(NC(=O)c2nn(C)c3c2CS(=O)(=O)c2ccccc2-3)c(Cl)c1` gave an inhibition of -9.81%.
In the case of `C#CC(C)(C)NS(=O)(=O)c1cc(-c2nnc(Nc3ccc(C)cc3)c3ccccc23)ccc1C`, the inhibition is reported as 2.16%.
In the case of `COc1ccc(-n2cc(CNCCc3cscn3)c(-c3ccccc3Cl)n2)cc1`, the inhibition is reported as active: 47.6%.
Compound `Cc1ccc(NC(=O)NCc2ccc3c(c2)CCN3C(=O)c2ccccc2)c(Cl)c1` has an inhibition of 18%.
In the case of `Cc1ccc(NC(=O)CN(c2ccccc2)S(=O)(=O)N(C)C)cc1Cl`, the inhibition is reported as 13.2%.
Compound `CN(Cc1ccccc1)C(=O)CN1C(=O)CSc2ccc(S(=O)(=O)N3CCOCC3)cc21` has an inhibition of -28.1%.
`COc1ccc(OC)c(S(=O)(=O)Nc2cc3c(cc2C)n(C)c(=O)c(=O)n3C)c1` was tested, and the inhibition was 10.6%.
Compound `COc1ccc(N(C(=O)/C=C\C(=O)Nc2ccc(Cl)cc2)C(C(=O)NCc2ccco2)c2ccc(C)cc2)cc1` (stereo not drawn) has an inhibition of -7.97%.
`COc1ccc(NC(=O)CCS(=O)(=O)c2nc(-c3cccs3)cc(C(F)(F)F)n2)cc1OC` gave an inhibition of -1.74%.
`O=C(c1noc2c1CCCCC2)N1CCN(c2ccc(Cl)cc2)CC1` showed an inhibition of 1.31%.
`COc1ccccc1NC(=O)Cn1c(=O)n(Cc2ccc3c(c2)OCO3)c(=O)c2oc3ccccc3c21` showed an inhibition of 2.55%.
Work on `Cc1ccc(S(=O)(=O)c2nc(-c3cccs3)oc2N2CCCCC2)cc1` yielded an inhibition of -21.3%.
For `CC(C)OP(=O)(c1ccc(N(C)C)cc1)C(O)c1ccncc1` (stereo not drawn), the inhibition was active: 31.7%.
`Cc1ccc(-n2ncc(C(=O)NCCN3CCN(C)CC3)c2C2CCN(C(=O)OC(C)(C)C)CC2)c(C)c1` was tested, and the inhibition was -5.4%.
`CC(=O)c1cccc(NS(=O)(=O)c2ccc3[nH]c4c(c3c2)CCCCCC4)c1` gave an inhibition of 4.01%.
With `COc1ccccc1N1CCN(C2CCCN(Cc3cccc(O)c3)C2)CC1` (stereo not drawn) the inhibition was active: 48.6%.
Compound `COc1cccc(N2CC(NC(=O)Cc3cccs3)CC2=O)c1` (stereo not drawn) has an inhibition of 12.6%.
`Cc1ccc2c(c1)c1c(c(=O)n(-c3ccccc3)c(=O)n1CC(=O)N1CCCC1)n2C` was tested, and the inhibition was 21.3%.
Work on `CCOc1ccc(OCC)c(Nc2nc3ccccc3c3nnc(C)n23)c1` yielded an inhibition of -6.46%.
`CCn1cc(C(=O)NCCc2ccc(C)cc2)c(=O)c2cc(S(=O)(=O)N(C)C)ccc21` was tested, and the inhibition was 11.8%.
For `CN1C(=O)CC(=O)N(C)c2cc(S(=O)(=O)N(C)Cc3ccccc3)ccc21`, the inhibition was 18.8%.
Work on `Cc1cc(C)c(Cn2c3ccccc3c3cnn(CC(=O)N4CCCCC4)c(=O)c32)c(C)c1` yielded an inhibition of -3.29%.
For `CCCCN(CCCC)CCNC(=O)c1cn(C)c2ccc(S(=O)(=O)N3CCOCC3)cc2c1=O`, the inhibition was -9.11%.
In the case of `CN(C(=O)c1ccc(Br)o1)C1CCS(=O)(=O)C1` (stereo not drawn), the inhibition is reported as active: 37.2%.
`Cc1c(Cl)cccc1NS(=O)(=O)c1ccc2[nH]cc(C(=O)NC3CCCC3)c(=O)c2c1` gave an inhibition of 0.848%.
`COc1cc(C(C)=O)ccc1OCC(O)CN1CCN(c2ccccc2)CC1` (stereo not drawn) was tested, and the inhibition was active: 85.2%.
With `CCOC(=O)C1CCC(CN(Cc2ccccc2)S(=O)(=O)c2ccc(Cl)cc2)CC1` (stereo not drawn) the inhibition was -11.9%.
`CCOc1ccc(-n2c(-c3ccc(C)cc3)nc3c(cnn3-c3ccccc3)c2=O)cc1` showed an inhibition of -0.357%.
`Cc1ccc(NC(=O)CCn2c(=O)c3cccn3c3ccccc32)c(Cl)c1` was tested, and the inhibition was -24.1%.
Compound `CCOC(=O)c1c(S(=O)(=O)N2CCC(C(=O)Nc3ccccc3OC)CC2)c(C)n(CC)c1C` has an inhibition of 20.4%.
With `COc1ccc(CCNC(=O)Cn2cc(C(=O)c3ccccc3)c(=O)c3ccc(C)nc32)cc1OC` the inhibition was 9.47%.
`O=S(=O)(c1ccc(Br)cc1)c1nc(-c2ccco2)oc1SCc1ccccc1Cl` was tested, and the inhibition was -5.12%.
`Cc1ccc(CCNC(=O)c2nn(C)c3c2CSc2ccccc2-3)cc1` showed an inhibition of 19.7%.
`CCCCOc1ccc(CNC(=O)CN2CCSc3ccccc32)cc1` showed an inhibition of 7.77%.
`COc1ccc(-n2nc(C(=O)N(C)c3cccc(C(F)(F)F)c3)c3c4ccccc4n(C)c3c2=O)cc1` showed an inhibition of 11.7%.
With `Cn1c(N)c(C(=O)CSc2nnc(-c3ccccc3F)n2N)c(=O)n(C)c1=O` the inhibition was active: 33.7%.
Compound `Cc1nc2nc(NC(=O)c3cccc(Cl)c3)[nH]n2c(=O)c1Cc1ccccc1` has an inhibition of 7.99%.
With `CCn1nnc2cc(C(=O)Nc3cccc(Cl)c3)ccc21` the inhibition was 4.02%.
For `CCCNC(=O)C1CCC(Cn2c(=O)c3sccc3n(Cc3cccc(OC)c3)c2=O)CC1` (stereo not drawn), the inhibition was -3.98%.
Compound `CCC(C(=O)N1CCN(c2cccc(C)c2C)CC1)n1nc(C)c2sc3ccccc3c2c1=O` (stereo not drawn) has an inhibition of -13.9%.
`COc1ccccc1N1CCN(C(=O)c2coc(=O)c(Br)c2)CC1` was tested, and the inhibition was active: 42.8%.
For `CCN(Cc1ccccc1)C(=O)CCc1c(C)nc2c(c(C)nn2-c2ccc(C)c(C)c2)c1C`, the inhibition was 0.653%.
With `Cc1ccc(NC(=O)c2oc3ccc(S(=O)(=O)N4CCCCC4)cc3c2C)cc1Cl` the inhibition was -22%.
In the case of `CC(C)(CO)Nc1nc(N2CCCC2)nc(N2CCCC2)n1`, the inhibition is reported as active: 46.9%.
`CCc1cccc(C)c1NC(=O)Cn1cc2c(n1)CCCC2` was tested, and the inhibition was 5.86%.
For `Cn1c(=O)c2c(-c3ccc(Br)cc3)n(CCc3ccccc3)cc2n(C)c1=O`, the inhibition was 8.09%.
Compound `CCN1C(C(=O)c2ccccc2)=C(OC(=O)c2ccc(OC)cc2)c2ccccc2S1(=O)=O` has an inhibition of 3.36%.
In the case of `O=C(Nc1ccc2c(c1)OCO2)c1cc(-c2ccc(Br)cc2)on1`, the inhibition is reported as -1.94%.
For `CCCN1CCC(=O)N([C@H](CN=[N+]=[N-])Cc2ccccc2)CC1`, the inhibition was active: 37.5%.
Compound `Cc1ccccc1C(=O)Nc1nc2nc(-c3ccccc3)cc(=O)n2[nH]1` has an inhibition of 18.2%.
With `Clc1cccc(-n2cc(-c3ccccc3)c3c(N4CCCCC4)ncnc32)c1` the inhibition was 19.9%.
In the case of `CCC(c1nnnn1Cc1ccc2c(c1)OCO2)N1CCN(c2ccccc2)CC1` (stereo not drawn), the inhibition is reported as active: 78.7%.
For `Cc1ccc(NC(=O)Nc2nnc(N(C)C3CCCCC3)s2)c(Cl)c1`, the inhibition was 6.98%.
With `Cc1cc(C)c(/C=C/c2onc(C)c2S(=O)(=O)N2CCC(C(=O)N(C)Cc3ccccc3)CC2)c(C)c1` the inhibition was -0.961%.
`Cc1ccc(-n2c(=O)c3c4c(sc3n(Cc3ccccc3C)c2=O)CCC4)cc1C` was tested, and the inhibition was -5.38%.
In the case of `Cc1ccccc1NC(=O)c1ccc(Cn2cc([N+](=O)[O-])cn2)o1`, the inhibition is reported as active: 32.1%.
With `COc1ccc(S(=O)(=O)NCC(c2ccc(N(C)C)cc2)N2CCCC2)cc1` (stereo not drawn) the inhibition was 11.5%.
In the case of `CCOC(=O)c1c(NC(=O)COc2c(C)cc(Cl)cc2Cl)sc2c1CCCC2`, the inhibition is reported as -9.69%.
`COc1ccc(-c2noc(CC(=O)Nc3ccc(Br)cc3C)n2)cc1` gave an inhibition of -2.15%.
For `COc1cccc(CNC(=O)c2oc3c(c2C)-c2nn(Cc4cccc(Cl)c4)cc2CC3)c1`, the inhibition was -6.45%.
With `Cc1ccc(NC(=O)CCNS(=O)(=O)c2cccc3nonc23)cc1` the inhibition was active: 30.5%.
Compound `COc1ccc(C2c3c(oc4ccc(C)cc4c3=O)C(=O)N2CCCN2CCOCC2)cc1OC` (stereo not drawn) has an inhibition of -8%.
Work on `COc1ccc(NC(=O)C2=CC(c3ccc4c(c3)OCO4)=NS(=O)(=O)N2C)cc1` yielded an inhibition of 2.4%.
`CCC(C)(C)NC(=O)C1CCN(S(=O)(=O)c2c(C)noc2/C=C/c2ccc(C)cc2)CC1` gave an inhibition of 11.6%.
`Fc1ccc(-n2cc(-c3ccccc3)c3c(NCCc4ccccc4)ncnc32)cc1` showed an inhibition of 13.1%.
In the case of `COc1ccc(C)cc1NC(=O)C1COc2ccccc2C1` (stereo not drawn), the inhibition is reported as 1.49%.
`CCc1ccc(NC(=O)Cn2c(=O)n(CCCCC(=O)NCCc3ccccc3)c(=O)c3ccccc32)cc1` showed an inhibition of 7.66%.
`CCOc1ccc(OCC)c(NS(=O)(=O)c2c(C(=O)N3CCCCCC3)c(C)n(C)c2C)c1` gave an inhibition of 5.35%.
`O=C(CSc1nnc(-c2ccccc2)c(-c2ccccc2)n1)NC1CCCC1` showed an inhibition of -2.22%.
For `CCOc1ccc(C(=O)c2cn(CC(=O)Nc3ccc(F)cc3)c3cc4c(cc3c2=O)OCCO4)cc1`, the inhibition was 1.27%.
`O=C(NCCCO)C(=O)NCC(c1ccc2c(c1)OCO2)N1CCOCC1` (stereo not drawn) was tested, and the inhibition was 22.9%.
In the case of `Cc1ccc(OCCn2c(CCNC(=O)C3CCCCC3)nc3ccccc32)cc1`, the inhibition is reported as -8.5%.
`Cc1ccc2c(=O)cc(C(=O)Nc3ccc(S(=O)(=O)N(C)Cc4ccccc4)cc3)oc2c1C` showed an inhibition of -3.9%.
For `c1csc(-c2nnc(NC3CCCCC3)c3ccccc23)c1`, the inhibition was active: 43.2%.
Work on `COc1cccc(C(=O)NCc2cn3ccccc3n2)c1` yielded an inhibition of 5.51%.
With `Cc1ccc(-c2nnn(CC(=O)NCCc3ccc4c(c3)OCO4)n2)cc1` the inhibition was active: 30.9%.
In the case of `CCOc1cc(C2CC(=O)Nc3cc4c(cc32)OCCO4)ccc1O` (stereo not drawn), the inhibition is reported as 6.39%.
With `COC(=O)C(C)Sc1nc2c(cnn2-c2ccc(F)cc2)c(=O)[nH]1` (stereo not drawn) the inhibition was -19.5%.
`CCOc1ccccc1NS(=O)(=O)c1ccc2c(c1)CC(C)N2C(=O)C1CCC1` (stereo not drawn) showed an inhibition of 3.73%.
`COc1ccc(NCc2cc3cc4c(cc3n(CC(=O)Nc3ccc(F)cc3)c2=O)OCCO4)cc1` showed an inhibition of -1.5%.
`COc1cccc(C(=O)N(Cc2cccnc2)c2nc3c(OC)ccc(C)c3s2)c1OC` showed an inhibition of 2.17%.
In the case of `O=C(CSc1nc2ccccc2nc1Cc1ccc(Cl)cc1)N1CCCc2ccccc21`, the inhibition is reported as 3.96%.
